Hit rate of the full screen: of about 150,000 compounds, about 540 (0.36%) showed an effect of 50% or more. Some of the results follow.
System: Plasmodium falciparum
Assay: Primary screen in NF54 nanoGlo assay, in single point, at 2uM, 72h; a lower Z score goes with more inhibition
Type: functional, Erythrocyte
Details: timepoint 72 hour

Row | Structure (SMILES) | % Inhibition | Z score
1 | CN1CCC(N2CCC(Nc3ncccc3Cl)CC2)CC1 | -2% | 0.3
2 | CN1CCN(C(=O)c2cc(Oc3c(F)c(F)c(F)c(F)c3F)cc(C(=O)N3CCN(C)CC3)c2)CC1 | 2% | -0.41
3 | CC(=O)N1C[C@H](O)C[C@@H]1C(=O)NCc1ccc(Oc2ccc(F)cc2)c(C)c1 | 5% | -1.15
4 | C[C@@H]1CN(Cc2cn(CC3(O)CCOCC3)nn2)C[C@H](C)O1 | 6% | -1.13
5 | O=C(NCc1cccc(-c2cccnc2)c1)N[C@H]1CCN(C2CCCCC2)C1 | 51% | -7.77
6 | CCOc1cc(N2CC[C@H](Oc3ccnc(CN(C)C)c3)C2)ncn1 | -2% | 0.28
7 | CN(C(=O)c1ccc2[nH]ccc2c1)C1CN(c2ccc3nncn3n2)C1 | -7% | 1.18
8 | COc1cc(OC)cc(N2CC[C@H](N(C)Cc3csc(C)n3)C2)c1 | 1% | -0.2
9 | CCOc1cc2nccc(N3C[C@H]4CN(C)C[C@H]4C3)c2cc1OCC | 99% | -21.22
10 | Cc1ccc(Nc2nc(N3CCN(c4ccccc4Cl)CC3)nc3[nH]nnc23)cc1 | -2% | 0.3
11 | Clc1cccc2c(Nc3cccc(Br)c3)ccnc12 | -3% | 0.39
12 | COc1ccnc(NC2CCN(Cc3cnc4ccc(C)cn34)CC2)n1 | 2% | -0.43
13 | CC[C@@H](COC)n1cnc(-c2ccccc2)c1-c1ccc2onc(C)c2c1 | -1% | 0.13
14 | CCOc1ccc2oc(-c3ccccc3)c(C(=O)N(C)C3CC4CC(=O)N(C)CC4C3)c2c1 (configuration not stated) | -1% | 0.24
15 | O=C1CC[C@H](NCCCc2nc3cc(Cl)ccc3[nH]2)CCN1Cc1ccccc1 | 7% | -1.09
16 | CCc1cc(=O)n2nc(NC3CCN(CCOc4ccc(F)cc4)CC3)sc2n1 | -1% | 0.16
17 | CO[C@H]1CCN(c2ccc(NC(=O)c3c[nH]c4ccccc34)cc2)C1 | -8% | 1.4
18 | CN(C(=O)Cc1c[nH]c2ncccc12)C1CC2CCC(C1)N2C(=O)OC(C)(C)C (configuration not stated) | 13% | -2.27
19 | CCCNc1ccc(C#N)cc1NC(=O)COc1c(C)nn(C)c1C | -15% | 2.7
20 | CCOc1ccccc1Cn1cc(-c2cnn(Cc3ccccc3OCC)c2)cn1 | -9% | 1.48
21 | c1cnc2ccc(OCc3csc(C4CCCC4)n3)cc2c1 | -7% | 1.46

Row | Structure (SMILES) | % Inhibition | Z score
22 | O=C(C[C@@H]1C[C@H]2O[C@H](CNC3CCNCC3)[C@@H](O)[C@H]2O1)N1CCS(=O)(=O)CC1 | -6% | 0.86
23 | c1ccc(-c2ncn(Cc3ccncn3)c2-c2c[nH]nc2C2CCCCC2)cc1 | -5% | 0.94
24 | Cc1cccc(-c2cc(Nc3cccc(C(=O)NCc4ccc(C(C)C)cc4)c3)ncn2)c1 | -13% | 2.19
25 | CCc1cc(N2CCC(Nc3nc4ccccc4n3C)CC2)ncn1 | -12% | 2.16
26 | CN(Cc1ccccc1)c1nc2nonc2nc1NCCN1CCC[C@H](O)C1 | -2% | 0.29
27 | COc1ccc2c(c1)c(C(=O)C1=CN(C)CCc3c1[nH]c1ccccc31)c(C)n2C | -14% | 2.41
28 | FC(F)c1nnc2ccc(N3CCC[C@H](c4n[nH]c(C5CCCCC5)n4)C3)nn12 | -4% | 0.68
29 | CC(C)N1CCC(NC(=O)CN2CCC3(CCOCC3)CC2)CC1 | -5% | 1.15
30 | Cc1c(F)cccc1S(=O)(=O)N1CC[S+]([O-])C(C)C1C (configuration not stated) | -3% | 0.65
31 | COC(=O)[C@@H](Cc1c[nH]cn1)NC(=O)c1ccc(OC(F)F)cn1 | -2% | 0.39
32 | Cc1cccc2c(-c3ccc(N4CCN(C)CC4)nn3)c[nH]c12 | -16% | 2.75
33 | CC1(C(=O)NC2CCCN(S(C)(=O)=O)C2)CC2CCC1O2 (configuration not stated) | 1% | -0.09
34 | c1ccc2c(c1)CNCC1(CCN(CC3CCNCC3)CC1)O2 | 7% | -1.14
35 | C[C@@H](CC(=O)Nc1ccn(CC(=O)N2CCOCC2)n1)c1ccccc1C(F)(F)F | -12% | 2.43
36 | O=C(NC[C@@H]1CCCN1)c1cccc(-c2cc(F)c(F)cc2O)c1 | 6% | -1.29
37 | Fc1cncc(-c2cnc(NCc3cc(Cl)ccc3OCC3CC3)nc2)c1 | -6% | 0.86
38 | COc1cccc(-c2nc(C(=O)N3CCOCC3(C)C)c(C)[nH]2)c1 | -12% | 1.84
39 | FC(F)(F)c1ccnc(Nc2ccc(NCc3ccccn3)cc2)n1 | 10% | -2.24
40 | CCC(C)Oc1cc(C(=O)N2CCC[C@@H]2c2csc(C)n2)ccn1 (some centres not stated) | -7% | 1
41 | CC(=O)NC(C)(C)c1noc(-c2ccc(F)cc2O)n1 | 1% | -0.16

Reference: ChEMBL document CHEMBL5308541, “MAIP: An Open-Source Tool to Enrich High-Throughput Screening Output and Identify Novel, Druglike Molecules with Antimalarial Activity” (ACS Med Chem Lett, 2023)
